Assay results from the supplement of paper PMC4967469.
A lower IC50 marks a more sensitive line; a fit beyond the top or the lowest dose is shown as a bound at that dose. AUC sums up the same curve from the lowest dose to the 256-fold higher top dose; values near 1 show little effect. An inferred top dose comes from the curve model; the source does not state it.

Tests used:
Experiment in all cases: Viability of human cancer cell lines after 72 h of drug (GDSC screen)
[1] = compound: O=C1/C(=C/c2cccs2)CC/C1=C\c1cccs1 [CCT007093]; conditions: top dose 6.6 µM; top dose inferred
Description: (§1)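 Human cancer cell lines in 384-well plates, medium with 10% serum, drug for 72 h over a 256-fold dose range (nine 2-fold or five 4-fold steps up to the top dose). Adherent lines were fixed and stained with the nucleic acid dye Syto60, suspension lines read with resazurin; signal relative to control wells, capped at 0 and 100%. One two-parameter sigmoid per drug and line, fitted in a mixed model over all curves with the slope shared within a line.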

[2] = compound: C=CC(=O)N1CCc2ccc(-n3c(=O)ccc4cnc5ccc(-c6cnn(C)c6)cc5c43)cc21 [QL-XII-47]; conditions: top dose 10.24 µM; top dose inferred
Description: as §1

[3] = compound: CCN1CCC(n2cc(CNc3cc(Cl)c4ncc(C#N)c(Nc5ccc(F)c(Cl)c5)c4c3)nn2)CC1 [KIN001-266]; conditions: top dose 20 µM; top dose inferred
Description: as §1

[4] = compound: COc1ccc(-c2cc3nccn3c(Nc3ncccc3C(N)=O)n2)cc1OC [BAY 61-3606]; conditions: top dose 8 µM; top dose inferred
Description: as §1

Row | Cell Line | AUC [1] | IC50 [1] [µM] | AUC [2] | IC50 [2] [µM] | AUC [3] | IC50 [3] [µM] | AUC [4] | IC50 [4] [µM]
1 | BT-483 (breast, adherent) | 0.951 | > 6.6 | 0.736 | 5.64 | 0.973 | > 20 | 0.967 | > 8
2 | CCRF-CEM (lymphoblastic leukaemia, suspension) | 0.989 | > 6.6 | 0.672 | 1.76 | 0.853 | 11.8 | 0.73 | 
3 | LB373-MEL-D (melanoma, adherent) | 0.99 | > 6.6 | 0.975 | > 10.2 | 0.871 | 18.1 | 0.925 | > 8
4 | TE-9 (oesophagus, adherent) | 0.984 | > 6.6 | 0.984 | > 10.2 | 0.954 | > 20 | 0.926 | > 8
5 | LNZTA3WT4 (glioma, adherent) | 0.989 | > 6.6 | 0.963 | > 10.2 | 0.981 | > 20 | 0.942 | > 8
6 | GOTO (neuroblastoma, adherent) | 0.974 | > 6.6 | 0.818 | 6.82 | 0.81 | 12.3 | 0.787 | 4.02
7 | HT55 (large intestine, adherent) | 0.99 | > 6.6 | 0.99 | > 10.2 | 0.985 | > 20 | 0.975 | > 8
8 | OE21 (oesophagus, adherent) | 0.946 | > 6.6 | 0.912 | > 10.2 | 0.914 | > 20 | 0.854 | > 8
9 | H2369 (mesothelioma, adherent) | 0.986 | > 6.6 | 0.978 | > 10.2 | 0.944 | > 20 | 0.339 | 0.176
10 | GCT (soft tissue, adherent) | 0.988 | > 6.6 | 0.747 | 3.08 | 0.983 | > 20 | 0.535 | 0.617
11 | HT-3 (cervix, adherent) | 0.957 | > 6.6 | 0.65 | 1.68 | 0.965 | > 20 | 0.941 | > 8
12 | SH-4 (melanoma, adherent) | 0.975 | > 6.6 | 0.796 | 8.27 | 0.806 | 18 | 0.9 | > 8
13 | MG-63 (osteosarcoma, adherent) | 0.939 | > 6.6 | 0.984 | > 10.2 | 0.982 | > 20 | 0.932 | > 8
14 | RT-112 (bladder, adherent) | 0.98 | > 6.6 | 0.835 | 7.47 | 0.937 | > 20 | 0.945 | > 8
15 | KP-2 (pancreas, adherent) | 0.986 | > 6.6 | 0.59 | 1.15 | 0.887 | > 20 | 0.814 | 4.79
16 | LU-99A (large cell lung carcinoma, adherent) | 0.987 | > 6.6 | 0.863 | 8.72 | 0.861 | 16.7 | 0.839 | 5.4

Row | Cell Line | AUC [1] | IC50 [1] [µM] | AUC [2] | IC50 [2] [µM] | AUC [3] | IC50 [3] [µM] | AUC [4] | IC50 [4] [µM]
17 | ML-1 (thyroid, adherent) | 0.978 | > 6.6 | 0.712 | 2.84 | 0.926 | > 20 | 0.821 | 5.7
18 | NCI-H1915 (large cell lung carcinoma, adherent) | 0.987 | > 6.6 | 0.875 | > 10.2 | 0.809 | 10.7 | 0.821 | 4.76
19 | TT2609-C02 (thyroid, adherent) | 0.971 | > 6.6 | 0.602 | 1.24 | 0.892 | > 20 | 0.595 | 0.929
20 | C2BBe1 (large intestine, adherent) | 0.983 | > 6.6 | 0.905 | > 10.2 | 0.851 | 18.7 | 0.851 | 7.5
21 | KYSE-410 (oesophagus, adherent) | 0.985 | > 6.6 | 0.536 | 0.808 | 0.975 | > 20 | 0.837 | 5.85
22 | NCI-H1975 (lung adenocarcinoma, adherent) | 0.983 | > 6.6 | 0.776 | 4.69 | 0.911 | > 20 | 0.592 | 0.929
23 | NCI-H1688 (small cell lung carcinoma, adherent) | 0.987 | > 6.6 | 0.778 | 4.58 | 0.85 | 17.6 | 0.904 | > 8
24 | OVISE (ovary, adherent) | 0.968 | > 6.6 | 0.689 | 2.61 | 0.863 | > 20 | 0.89 | > 8
25 | EW-16 (Ewing sarcoma, adherent) | 0.985 | > 6.6 | 0.894 | > 10.2 | 0.814 | 11.5 | 0.687 | 1.72
26 | CAL-78 (chondrosarcoma, adherent) | 0.981 | > 6.6 | 0.986 | > 10.2 | 0.917 | > 20 | 0.986 | > 8
27 | JURL-MK1 (chronic myeloid leukaemia, suspension) | 0.872 | 6.24 | 0.766 | 3.76 | 0.824 | 11.8 | 0.85 | 6.04
28 | SF539 (glioma, adherent) | 0.974 | > 6.6 | 0.358 | 0.271 | 0.861 | 14.3 | 0.892 | 7.76
29 | MV-4-11 (leukaemia, suspension) | 0.974 | > 6.6 | 0.313 | 0.214 | 0.876 | 13.9 | 0.151 | 0.056
30 | CAKI-1 (kidney, adherent) | 0.964 | > 6.6 | 0.621 | 1.63 | 0.86 | > 20 | 0.713 | 2.73
31 | OVTOKO (ovary, adherent) | 0.966 | > 6.6 | 0.815 | 7.7 | 0.877 | > 20 | 0.634 | 1.3
